Some of the results follow.

First the molecules themselves.
T1: UNK ZnF1-3 (human, UniProt Q9C0B0 31-174)
T1 sequence: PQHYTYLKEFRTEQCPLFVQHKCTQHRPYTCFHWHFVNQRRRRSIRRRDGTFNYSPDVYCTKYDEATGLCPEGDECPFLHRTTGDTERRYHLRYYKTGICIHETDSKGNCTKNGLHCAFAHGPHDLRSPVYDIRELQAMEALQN

B1: 192992112_192993039_962_CDS_ENSG00000116750_ENST00000367454|human|control|control (ssRNA)
RNA: GGGAGUUCUACAGUCCGACGAUCUUCUGACUGAAUAGCACUUAACAUACUAUUACCUUGAUCUGUAUCCAUGGGUUCCUCUGCAAGUUGUCUUUGUAACUCUGCUAUCUUCUGCUCAUAUAUCAUUUUUCUGUCAGACACAAUCAACAGAGGAUUGAGCAUCA
B2: 46920667_46922139_661_CDS_ENSMUSG00000021375_ENSMUST00000056978|mouse|control|control (ssRNA)
RNA: GGGAGUUCUACAGUCCGACGAUCCGUUCGAGACUUAUUUCCCUCAGACAUCAGUGACUCAAUGUCCUCAAAGCUGGUGACAGCCAGCUGAGACAGACCAUCGACAUACGGCCCCAGGACCUUAUGCUCUCGGACUUUCAGAGACAACAGAGGAUUGAGCAUCA
B3: chr2:232320318:232320319:-_ENSG00000115053_ENST00000322723|hu_hu|hu_hu_hu_mus_True|78_108 (ssRNA)
RNA: GGGAGUUCUACAGUCCGACGAUCACUGUUGAAGUCUACAAAACCAAACCCUUUGGAGGACCCAGUUUCCCGAUCAGUGACUAUUCUUGCACGAACAGAGCCCUCAAAUGAUUCUUUUAAGGUCUCUUCAGUGGUAUCCUCAGACAACAGAGGAUUGAGCAUCA
B4: chr7:141445308:141445309:+_ENSG00000106028_ENST00000265304|hu_hu|hu_hu_hu_mus_False|8_38 (ssRNA)
RNA: GGGAGUUCUACAGUCCGACGAUCUAUGAUUGUUGUUGCUUGCCGCCUCACAUUGUUUUUAUCCAUGUACUCGCCAUAGUCCACUUUCCCUUCCACAUAAAUUCGAGCCCCCUUUUUCACAUACUGAUAUGCCACGUCUCUGAGCAACAGAGGAUUGAGCAUCA
B5: chr14:89338683:89338684:+_ENSG00000165533_ENST00000346301|hu_hu|hu_hu_hu_mus_False|38_78 (ssRNA)
RNA: GGGAGUUCUACAGUCCGACGAUCGUGGUUGUUGUGGACCAGGGCCAGCCUGAAGCACUGAUGGGCCAAGUUUGUAUCUCCGAUUCCCACAGCUAUGUGUCCCAAGUUGUACCAGACAUCAGCUGCCUCUUCUUCAUUUUCAGCCAACAGAGGAUUGAGCAUCA
B6: chr2:48782664:48782665:-_ENSMUSG00000026761_ENSMUST00000141441|mus_mus|FALSE|FALSE (ssRNA)
RNA: GGGAGUUCUACAGUCCGACGAUCUCACUCUCUUUUCUAAGAGUUCCAAAAUAUCCAAUCUACAUGUAAGUCCAAUAACUGCUACUGGUGUCUGUGCAGAUUGAGAAAUGUCAAAAAGAUUAUAAAGGAGUGUUUGAUUUUUCUCAACAGAGGAUUGAGCAUCA
B7: chr3:122152592:122152593:-_ENSG00000114030_ENST00000344337|hu_mus|FALSE|FALSE (ssRNA)
RNA: GGGAGUUCUACAGUCCGACGAUCAUUUGUGAUGGCCCAAGCAGCUUCCUUCCUUGUCCGGAACUCUGCUGUUUGCAAUAUACUAAUAAGAGCUGGGAACAUGUUAGCAUCUAUCACAGUCUGGAUCUGUGCCCUAUUUCCAGCCAACAGAGGAUUGAGCAUCA
B8: chr8:59488481:59488482:+_ENSG00000137575_ENST00000447182|hu_hu|motif|central (ssRNA)
RNA: GGGAGUUCUACAGUCCGACGAUCUCCAACAUCAUUACCAGUUACAGGAGCCACCAUAUAGUUUAUACUGGAAGGUCUUGCGGCCAACCCCUGAAGUGGUGCACCAGAAACCACGGCCACAUUUGCACGUAUUUCUUCUUCAUUCAACAGAGGAUUGAGCAUCA
B9: chr1:160275524:160275525:-_ENSG00000122218_ENST00000241704|hu_hu|motif|central (ssRNA)
RNA: GGGAGUUCUACAGUCCGACGAUCACAUAAAGCAUCCAGUUUGCGGUUACAGAUCACAAUGGCGUGUUUGGCUAGUAGUGCGGCAUGUGACAUGUCUGCUGACCAGAUAACGUAUUUCACUUUAGAAAUCUUCACAGAUGCCAGCAACAGAGGAUUGAGCAUCA
B10: 94666424_94668101_775_CDS_ENSMUSG00000038902_ENSMUST00000107270|mouse|control|control (ssRNA)
RNA: GGGAGUUCUACAGUCCGACGAUCCACAGGCAUUGUGGAGCCUGGCCUCACGGGGGUCAUCUGAGAGAACACUUGUGGGACGCCAACUGUCGGCUUAACAAACUGUGUACCUGGGGCUGGGACCAAUGUAAUUGGUCUAACUGUCAACAGAGGAUUGAGCAUCA
B11: chr4:95690885:95690886:+_ENSMUSG00000028572_ENSMUST00000156910|mus_mus|mus_mus_mus_hu_False|58_98 (ssRNA)
RNA: GGGAGUUCUACAGUCCGACGAUCUUUAGAAAAUGUUAAUGUUAAAUCUAAAAUAUUUUCAAAGGCUUAUUUUAUUUUACUAAAAGACACAGGCAAGCAGACACUACAAGAAUAUAUGAAAAUGAAACUCAACAAUAUAACUGUCAACAGAGGAUUGAGCAUCA
B12: 77461496_77471655_1232_CDS_ENSG00000132842_ENST00000519295|human|control|control (ssRNA)
RNA: GGGAGUUCUACAGUCCGACGAUCCUUCAGUGUCUUGAUCAUAGUUGGAUCAGUUGACCUAACAUAGAAACUCUUCAGAUAAGGUUCAAACAUCCCCUUUCUUUGAAUUGACAUAGUUGCUAUAUUUUGUAGGACAAUAUACUGCAACAGAGGAUUGAGCAUCA
B13: chr3:148802587:148802588:-_ENSG00000071794_ENST00000310053|hu_mus|hu_hu_hu_mus_False|58_78 (ssRNA)
RNA: GGGAGUUCUACAGUCCGACGAUCUCCAACAACUUGUCCUCUCAUAGUUCCAAAUAAAACGGAAUCUUGCUCUUCAUCACUAGUUAGGAAGUCAUCUGGAGGAAUAAUGUCUUGGAAUUCAAAAUGUGGCAAGAAAGUUGAGUACAACAGAGGAUUGAGCAUCA
B14: 101230996_101231116_1247_3pUTR_ENSMUSG00000042035_ENSMUST00000043983|mouse|control|control (ssRNA)
RNA: GGGAGUUCUACAGUCCGACGAUCGACCUCCACAGGGUUCUCGCCACCCUUCUGCCGCAGCCAGGAUACCGAGAGGUGGGUGUGCUGGACGGUCUCGGUGGCCACUUCGCAGCUGAGCUCCAGGGGAUCCUGUUCCACUUUGUGCAACAGAGGAUUGAGCAUCA

In the assay the target is T1, UNK ZnF1-3. In words: nsRBNS (natural sequence RNA bind-n-seq); RBNS binding buffer (assumed for nsRBNS): 25 mM Tris pH 7.5, 150 mM KCl, 3 mM MgCl2, 0.01% Triton X-100, 500 ug/ml BSA, 20 U/ml SUPERase-In, 4 C; UNK is unkempt and MSI1 is Musashi-1; names of the RNAs are library labels; protein concentration not given here; high values mean tight binding.
Turning to B1, the binding signal worked out at 0.589 enrichment R.

Take B2: the binding signal was 0.584 enrichment R.

B3: the binding signal was found to be 0.481 enrichment R.

B4 returned a binding signal of 0.578 enrichment R.

On to B5, for which the binding signal worked out at 0.94 enrichment R.

For the molecule B6, the binding signal worked out at 0.828 enrichment R.

With B7, the binding signal came out at 0.81 enrichment R.

In turn, B8 displayed a binding signal of 1.26 enrichment R.

The molecule B9 showed a binding signal of 0.72 enrichment R.

Molecule B10 displayed a binding signal of 1.01 enrichment R.

Molecule B11 had a binding signal of 2.14 enrichment R.

B12 had a binding signal of 0.789 enrichment R.

For B13, the binding signal amounted to 1.46 enrichment R.

For B14, the binding signal was 0.651 enrichment R.

Values taken from article PMC12136788.
